The values below come from the RNAGym collection of RNA variant scans (doi:10.1093/nar/gkz1192).

The chains are these.
B1: CPEB3 Ribozyme (parent)
chain: UAACAGGGGGCCACAGCAGAAGCGUUCACGUCGCAGCCCCUGUCAGAUUCUGGUGAAUCUGCGAAUUCUGCUGUAUAUCUC

The source gives no read counts; variants with many changes may rest on few reads.

This data set covers variants of B1. Description: self-cleavage, relative activity (ratio to wild type); higher = more cleavage; in vitro, sequencing. In a few lines:
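After error-prone PCR and barcoding, CPEB3 ribozyme mutant libraries were transcribed with T7 RNA polymerase at 37°C for 5 hours, then given 15 min with DNase I before an EDTA stop, and they cleaved during both steps. Reverse transcription with template switching preceded Illumina sequencing. Relative activity divides a variant's cleaved/total read fraction by the unmutated ribozyme's. At least 5 reads were required per variant, and three batches were averaged.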
With C38U C50U U69A, the self-cleavage was found to be 0.32.

On to A35U G36U A47G, for which the self-cleavage was determined as 0.33.

Turning to A35G U51A U80C, the self-cleavage was 1.28.

In the case of C40A G42U A56G, the self-cleavage was 0.1.

For the variant A35G U58C C59U, the self-cleavage came to 0.73.

As to A35G U41C U72A, the self-cleavage stood at 1.24.

As for G36A U41A G61A U67C U78C, the self-cleavage worked out at 0.13.

In the case of A35U G63A U72C, the self-cleavage was 0.5.

For the variant A35G U41C U43A U69A U80C, the self-cleavage was 0.65.

On to C40A G46A A56G, for which the self-cleavage is 0.16.

Consider C40U G73C C81U, for which the self-cleavage was determined as 1.29.

As to A35G U54C U72A A75U, the self-cleavage came out at 1.25.

For C38A U41C A57G G73U, the self-cleavage came out at 0.18.

For the variant U41A U48C U60G U72C, the self-cleavage was 0.15.

For the variant U41C A64U U69C, the self-cleavage turned out to be 0.42.

On to U41C A45U U72C, for which the self-cleavage is 0.58.

For U41A A47G U54A A65G U67C U72C U80G, the self-cleavage was 0.08.

As to A35U U67C A75U, the self-cleavage was 0.35.

For the variant C38U C44U C59A, the self-cleavage stood at 0.41.

Regarding U41C A47G A65G, the self-cleavage stood at 0.59.

For the variant C40U U51C U54C U74C A77G, the self-cleavage turned out to be 0.46.

For the variant U41C A45U U60A U69A U76C, the self-cleavage came out at 0.64.

Take C40U U43C U54C U60A U67C G70A: the self-cleavage stood at 0.05.

G36C G52A C62A: the self-cleavage was 0.13.

As for A35U U54G U74C, the self-cleavage is 0.87.

Regarding U41A U51C A56G U67A, the self-cleavage came out at 0.14.

A35G U60C U72A: the self-cleavage amounted to 0.56.

As to A35U A45C A64G U72C U74C U76C, the self-cleavage is 0.27.

With A35U A45U U54G U72A A77U, the self-cleavage turned out to be 0.07.

With A35U U41G A45G U54G A56U, the self-cleavage came to 0.

In the case of U41A A45G A47G A65G U78A, the self-cleavage came out at 0.17.

As for C37A U43C U76C, the self-cleavage worked out at 0.09.

Regarding C37G U43A A45U, the self-cleavage is 0.33.

Turning to C39A A45G U67A U69C, the self-cleavage is 0.05.

U41A U48A U74C: the self-cleavage amounted to 0.12.

In the case of U41A A56G A77U, the self-cleavage was found to be 0.19.

For U41A A56G A77C, the self-cleavage was 0.19.

A35U U51C A57G A65G: the self-cleavage is 0.18.

U41A U43C U48C U60G: the self-cleavage was 0.18.

Regarding G36U U60C G63C U72C, the self-cleavage was determined as 0.11.

For A35U U49C U60A, the self-cleavage came to 0.06.

For A35U U51C A56C A65G, the self-cleavage was 0.14.

Regarding G36U C40A A45U G63A U69C, the self-cleavage came to 0.13.

For C40A C62U C68A, the self-cleavage amounted to 0.1.

As for U41A A57G A65G U66C, the self-cleavage stood at 0.18.

As for G36C A47G U69A U74C, the self-cleavage was found to be 0.06.

Turning to A35G U51C U76C, the self-cleavage turned out to be 1.27.

A35G U51A U58C U80C: the self-cleavage turned out to be 1.23.

For U41A A45U A77G, the self-cleavage stood at 0.21.

In the case of A35U U49C A64G U67G, the self-cleavage is 0.17.

With A35U A64G U72A, the self-cleavage worked out at 0.14.

For the variant A35G U48A A65G U69A, the self-cleavage is 0.25.

A35U G46A U78C: the self-cleavage is 0.1.

On to A35U A56G U78C, for which the self-cleavage was 0.36.

Take C40U A56U A65G: the self-cleavage came out at 0.09.

As to G36A U43C U69C, the self-cleavage stood at 0.14.

Consider A35U U41C A64G, for which the self-cleavage came to 0.31.

In the case of U41A G42U U72A, the self-cleavage was determined as 0.22.

For the variant U41A U49A U69C, the self-cleavage came to 0.14.

On to U41C A65G A77U, for which the self-cleavage was determined as 0.5.

For A35U A57U U80C, the self-cleavage came out at 0.3.

On to C40G U51A U54A, for which the self-cleavage was determined as 0.45.

Take A35G U41C A45G A56C G63U: the self-cleavage was found to be 1.04.

As to A35U U60A A65C U78C, the self-cleavage was 0.13.

For A35U U54C U67C A75U, the self-cleavage amounted to 0.07.

Take C37A U74C A75U: the self-cleavage was 0.23.

U41C A57G A64G: the self-cleavage is 0.69.

As for A35U U48C U69A, the self-cleavage came out at 0.16.

As for U41A C44G U80C, the self-cleavage was 0.32.

With A35U U43C U54A A56G C71G U78C C81U, the self-cleavage is 0.16.

On to U41C A45U U69A, for which the self-cleavage turned out to be 0.34.

With C38U U43C U69C, the self-cleavage turned out to be 0.08.

With C37U G42C U49A U66C U67A, the self-cleavage amounted to 0.09.

Take C40U U72A U80C: the self-cleavage stood at 1.01.

For U41C A64G G70U, the self-cleavage was 0.29.

Consider C39U A47G U80G, for which the self-cleavage came out at 0.89.

In the case of C40U U41A A45C, the self-cleavage was 0.18.

Regarding G36A U41A U67A U69A, the self-cleavage worked out at 0.04.

In the case of U41A A45U A57G U80C, the self-cleavage came to 0.38.

Turning to C39A U69G U78A, the self-cleavage turned out to be 0.09.

Consider C37U U41C A56G U69C U72C, for which the self-cleavage is 0.08.

Take C37A U41A A64G A65G: the self-cleavage came to 0.08.

Regarding G36A U48C A57G U60A, the self-cleavage was 0.08.

Take A35U U48C U54C U72C: the self-cleavage is 0.38.

As to C38U U41C A64G, the self-cleavage was 0.46.

For U41A C44U U48C U60C, the self-cleavage stood at 0.2.

On to C37U U41A U49C G53U, for which the self-cleavage was determined as 0.2.

Regarding U41A A64U U72C, the self-cleavage was determined as 0.13.

For G36A U41C U51A A65C U78C, the self-cleavage was 0.1.

Take A35U U43C A56G A64U: the self-cleavage is 0.17.

For C40U U54C U72C, the self-cleavage is 0.88.

Consider U41C A47G G55U, for which the self-cleavage is 1.12.

Regarding U41C A45U G52U, the self-cleavage worked out at 0.8.

Take U41A G46U U80C: the self-cleavage amounted to 0.15.

Take A35U U41C A47G A56G U76A: the self-cleavage worked out at 0.19.

Turning to C40A U51C U54C U67C, the self-cleavage turned out to be 0.12.

U41A U48C U67A U72A U80A: the self-cleavage is 0.07.

With A35U U51A A64G U66A A75C, the self-cleavage is 0.12.

As for C38A C40G A45U U69G U74C U78C, the self-cleavage was found to be 0.07.

For the variant U41A A56G A75C, the self-cleavage worked out at 0.21.

A35G U49C U60C: the self-cleavage was 0.22.

As to C37U A45G A77U, the self-cleavage stood at 0.68.

In the case of A35G U58C U67C G70A, the self-cleavage amounted to 0.55.

As for U41A A45G A56U A57U, the self-cleavage was 0.17.

With U41A A45G U49A U51A A64U, the self-cleavage came to 0.1.

With C40A U41G A45G U74C A75G C79A, the self-cleavage came out at 0.34.

For U41C A45G U67C U69C, the self-cleavage came to 0.16.

Consider G36U U54G A65G, for which the self-cleavage turned out to be 0.35.

A35G U54A U80C: the self-cleavage was determined as 1.28.

Take U41A U51G U72C A75U: the self-cleavage stood at 0.1.

In the case of A35U U43G U67C U69C, the self-cleavage worked out at 0.16.

Consider U41A A65U A77G, for which the self-cleavage was found to be 0.27.

As for U41A A45G C50U U67A U74A, the self-cleavage amounted to 0.18.

Take C37A C39A U72C: the self-cleavage amounted to 0.36.

Take U41A U48C C79A: the self-cleavage worked out at 0.07.

Turning to U41A A57G A64U U74C, the self-cleavage is 0.06.

Take A35U C59A A65G A77G: the self-cleavage was determined as 0.05.

Take C38A U49C U66A: the self-cleavage was 0.2.

Take A35U U41C U54A: the self-cleavage came to 0.51.

Consider A35U A57G G70A, for which the self-cleavage was determined as 0.2.

Regarding C37U A47G U69C U72A, the self-cleavage was found to be 0.16.

A35U U54A A64U: the self-cleavage stood at 0.12.

With U41C A47G U54A U66C C79G, the self-cleavage was found to be 0.39.

As to A35U U41C U54C A64U, the self-cleavage came to 0.13.

With G36A U41C C50A G52A U80C, the self-cleavage came out at 0.24.

Consider G36C A47U U54C, for which the self-cleavage worked out at 0.1.

Turning to C40A U54A A57U U66C, the self-cleavage came to 0.09.

Consider U41C A47G U48C G52A U69C, for which the self-cleavage was 0.37.

In the case of C40U U41C U69A, the self-cleavage was 0.18.

C40A U41C U49G U74A: the self-cleavage is 0.09.

In the case of C40G U69A U80C, the self-cleavage was 0.1.

As for A35G U66C U72C, the self-cleavage amounted to 1.02.

As for A35U U43A U48A U49C, the self-cleavage is 0.13.

Take A35U A45G U74C U80C: the self-cleavage was 0.6.

As for A35G U41G C68U U69C, the self-cleavage is 0.11.

Regarding C39G U41A A45C U54A A65G, the self-cleavage is 0.09.

With A35G U67A U72A C81A, the self-cleavage turned out to be 1.28.

For U41C A57C U72C, the self-cleavage was 0.33.

With A35U A45G U67C U72C U76A, the self-cleavage is 0.1.

Take U41A G63A U67C U69A U78C: the self-cleavage is 0.08.

Take A35G U74C U80A: the self-cleavage was 1.51.

With A35G U60A U78C, the self-cleavage came out at 1.27.

In the case of C38U A45G U49C A57G A77U, the self-cleavage came out at 0.1.

As to A35G U51C U69C U78C, the self-cleavage is 0.98.

With C39A U41C U69C, the self-cleavage was 0.36.

As to C38A U43C U51G A64U, the self-cleavage was determined as 0.06.

For C37A U43C U74C, the self-cleavage amounted to 0.18.

With U41A C44U G53A, the self-cleavage was 0.34.

Turning to A35G U43A U54A C62A A64C, the self-cleavage turned out to be 0.46.

As for U41A U54C U67C, the self-cleavage worked out at 0.12.

In the case of A35U U54C U60A, the self-cleavage was determined as 0.13.

Regarding C39U U49A C50U, the self-cleavage was 0.18.

As for U41A U49C A77U U80C, the self-cleavage worked out at 0.05.

For A35U U43A U67A, the self-cleavage worked out at 0.15.

Turning to U41A U51G U54C, the self-cleavage turned out to be 0.39.

Regarding C40U U43A A47G A64G U72C C79U, the self-cleavage is 0.62.

For C38A A56U A77G, the self-cleavage turned out to be 0.16.

With A35U C40U U51A, the self-cleavage worked out at 0.31.

On to C40G U43A A45G U49A U60A U67A U78C, for which the self-cleavage came out at 0.07.

For G36A U51A G63A U66C, the self-cleavage stood at 0.1.

Turning to A35U U43A U60C U69C, the self-cleavage amounted to 0.23.

Consider A35U C40U U60A, for which the self-cleavage was determined as 0.32.

In the case of C37U U43C U69A U72A, the self-cleavage is 0.06.

For the variant U41A G63A U69A U78C, the self-cleavage is 0.12.

Turning to A35U A64C U66C U78C, the self-cleavage came out at 0.09.

Turning to A35G U60C A77G, the self-cleavage is 1.18.

Consider U41A U48C C71A, for which the self-cleavage was 0.15.
